Source: patent publication US11369598B2, “Treatment of T-cell mediated diseases” (Ampio Pharmaceuticals, Inc., priority 2003, dated 2022)

Test system: H4 #9.25 cells

**Q.** For Asp-Ala diketopiperazine [DA-DKP], which “in vitro cytokine production” value is on record?
**A.** inhibited
